# ± gives the standard deviation of the averaged measurements. Some of the results follow.
# System: PfAP2-LT AP2 domain (GST-tagged)
# Test: gcPBM binding intensity (ln(normalized median fluorescence intensity)); higher = stronger DNA binding
# Outline: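 Alexa488 anti-GST antibody, scanned at 488 nm, detected GST-tagged P. falciparum DNA-binding domains that had been expressed in E. coli and incubated for 1 h on an Agilent 4 × 180k array. The array carried primer-extended double-stranded 36-bp intergenic genomic probes and negative controls. Binding intensity is the highest Masliner-normalised natural-log median intensity across replicate spots of either orientation of each probe.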
row,Sequence,gcPBM binding intensity (ln)
1,TTACAATTTAATATATGTACATATTTGTGATTTATC [XGTACX_site2911],8.76 ± 0.47
2,TATATATATTAAAAAGTGCATTATTCATATTATATA [GTGCAC_site9400],8.41 ± 0.39
3,TTTATTAATAATTATACACACATATAAAATGAATAA [CACACA_site1359],8.58 ± 0.51
4,AAAATATCTTGTTACTGTACAAATATAAATAAATAC [XGTACX_site3684],8.65 ± 0.54
5,CATGAATCCTAATAATGTACATAAGAATTCATAATG [XGTACX_site1607],8.73 ± 0.33
6,TACATATATATATATGAACACACAAAAAGAATATTT [CACACA_site8421],9.05 ± 0.44
7,ATAAGCATACATATTACACACATATAATATATATAT [CACACA_site2487],9.11 ± 0.31
8,AGTGGATAAATTTATTCACACATTTTTTTTTTTTTT [CACACA_site5914],8.51 ± 0.41
9,TCTTACTAATTTATGGGGACTTATCACCTATTCAGT [CACACA_negctrl_site652],8.72 ± 0.59
10,TTTTATGAGAAACACACACACAAAAAAAAAAAAAAA [CACACA_site4129],9.05 ± 0.47
11,AAAAAAAAAAAAAAAACACACATACACATATATTTT [CACACA_site7768],9.12 ± 0.26
12,TATATTATTTATAGTAGTACATAAAATATAAATATT [XGTACX_site4417],8.55 ± 0.49
13,ATAATACATACATACATACACACATATATATATATT [CACACA_site3576],9.29 ± 0.38
14,TATTGTATTTCATATTGTACTAAAAAAAAAAAAAAG [XGTACX_site6694],8.31 ± 0.46
15,TAAAAAAAAAAAAAAACACACATATAAATATTTATA [CACACA_site6702],8.55 ± 0.4
16,TCAATAATAAAAAACACACACAAAAAAAAATAATTA [CACACA_site2798],9.21 ± 0.52
17,AACAAAGTCATACATACATACATATATATATATATA [GTGCAC_negctrl_site632],9.64 ± 0.14
18,AAATTAAAATAAAATAGTACATATATTTATATTTTT [XGTACX_site1687],8.35 ± 0.42
19,TATAAAAAAAAAAAAAAAAAAAAAAATATATATATA [CACACA_negctrl_site817],8.79 ± 0.25
20,TATTATTTTTCATATGCATGCAAAAATAAAAAAATA [TGCATGCA_site350],8.56 ± 0.22
21,ATTTTTTTGTATATATATGACTGGGGATATAATCAA [GTGCAC_negctrl_site274],8.74 ± 0.35
22,ATGAAAAAAAAAAAAAAAAAAAAAAAAAAAAAAATA [CACACA_negctrl_site1083],8.37 ± 0.55

row,Sequence,gcPBM binding intensity (ln)
1,AAAAAAAAAAAAAATTGTACTTAAATATATATATAT [XGTACX_site7604],8.62 ± 0.33
2,TAAACATTCTTATATAGTACCCATATTAAAATATAC [XGTACX_site8014],8.54 ± 0.41
3,TTAGCTTATCATTACTGTACTTTATTCATATATATG [XGTACX_site8008],9.01 ± 0.49
4,ATTTTTTTTTCTTGTACACACTATTTTATAATTTTA [CACACA_site6102],9.13 ± 0.49
5,ACATACATATATTTATGTACATATATATTTATGATT [XGTACX_site6485],8.81 ± 0.42
6,TTTTGGTGTATAGTATTAATATAAAATAATTATATT [CACACA_negctrl_site47],8.36 ± 0.42
7,AATTTATATTTATGTGCATGTAATAACTGTATATAA [TGCATGCA_site349],8.71 ± 0.31
8,AAAAAAAGATTATACACACACATATATAAACATACA [CACACA_site4553],9.54 ± 0.3
9,TATAAATATTATAATTGTACATATTATAAAAATTTT [XGTACX_site2719],8.4 ± 0.47
10,TTTAAAATTTAATTTTGTACATATACCAATTTTATT [XGTACX_site448],8.57 ± 0.57
11,AATTAGCATAAATGGGTGCTACACAAAAATGCATGT [GTGCAC_site9640],9.04 ± 0.38
12,AATATATAATCAGATGAATTTTTTTTTTTTTTTTCA [CACACA_negctrl_site534],8.18 ± 0.48
13,ATATAATATATGTTATGTACATAGTTTTTATTGTTC [XGTACX_site7438],8.87 ± 0.46
14,ATATAATGTTAGGGTAGAGGAAGTAACTAATATAAA [CACACA_negctrl_site1153],8.76 ± 0.56
15,AATTTTTTATTCTTTGCATGTCATCATATATAATAT [TGCATGCA_site549],9.02 ± 0.32
16,ATATAAATATGAAAAAGTACAAGCCATCAAGAAATC [XGTACX_site8140],9.04 ± 0.41
17,AAATATATAAAAGTATGTACATATGAAAAATATATA [XGTACX_site6165],8.94 ± 0.52
18,TTATAAAGAATTAGGAGTACAAATGCATATATAATA [XGTACX_site6580],8.86 ± 0.47
19,TTATATAACATAACGATGTTTCAAAACATATTGTAT [CACACA_negctrl_site997],8.62 ± 0.45
20,AGCAACTAAAAAGGATACCCCATTAAAAAAAAATTA [XGTACX_negctrl_site489],8.64 ± 0.51
21,TGTGTATAAAAAAAGTGTACACAAAGTAAGACTTTA [XGTACX_site3759],8.96 ± 0.42
22,TACCAAAAAACGGCACGCATATGTATAAGAATATGT [XGTACX_negctrl_site470],9.04 ± 0.28

row,Sequence,gcPBM binding intensity (ln)
1,TTAATTAAGAAACACACACACATATATATATATATT [CACACA_site2290],9.79 ± 0.12
2,ATATAATAAATGTCATGTACATACAACATTTTAACT [XGTACX_site7517],8.78 ± 0.32
3,TATTAATAATTTTCATGTACATATGTATTTGTAATA [XGTACX_site858],8.69 ± 0.45
4,TGAATAAAGAAACACACACACATATATATATATGTA [CACACA_site17],9.6 ± 0.25
5,TTTTTAATTTACTGTCATAGGTACCTTAACTTATCA [CACACA_negctrl_site1664],8.83 ± 0.47
6,TACTTATGTTCGCACACATGCAAATTAAAAAAAAAA [TGCATGCA_site1023],9.07 ± 0.4
7,TACATATACATATTGTGTACATAATAATTATTTATA [XGTACX_site7884],8.73 ± 0.35
8,GTGGATATATGTATATGTACATATGTATGTATATAT [XGTACX_site2412],9.04 ± 0.33
9,ATTTTTTTACTGGATCCATATTTGCTTTTTTATTTA [CACACA_negctrl_site1108],9.01 ± 0.45
10,GTATATTTTATTTTATGTACATATTCATTTTTTATT [XGTACX_site561],9.13 ± 0.57
11,TTATATATATGACTTTGTACATATACATATTTTTTA [XGTACX_site4669],8.69 ± 0.44
12,TCTCTTTTTCGTTCATGTACAAATAAATAAAAATAT [XGTACX_site6558],8.41 ± 0.42
13,TATTATATATATGCACGTACAAAAATAATAAAGGTA [XGTACX_site3506],8.94 ± 0.45
14,ATATGTATTTATATATGTTTGATTTTTTTTTTTTTT [TGCATGCA_negctrl_site506],8.61 ± 0.45
15,AGGAAAAAAGAAAAAACACACATAAATATATATATA [CACACA_site3085],9.11 ± 0.38
16,AAATGAAATAAAATCATATATTTATAATTATTATAA [TGCATGCA_negctrl_site612],8.36 ± 0.53
17,CATACAGACATACATACACACATACCTATAAATATA [CACACA_site6995],9.44 ± 0.44
18,ATATTCTGCTGTTTAGTGCAATTATGAAATTATGAT,8.64 ± 0.32
19,AAAGAGAACAGAAGTACACACATGTTCTTTTAGTAA [CACACA_site5557],8.98 ± 0.42
20,TTGATTTTTATTTTTAAAATAAATAAATTTCAAATG [TGCATGCA_negctrl_site199],8.01 ± 0.5
21,TAAAAAATAAAAATTGCACACTAAAAAATTACCCAC [CACACA_site5823],9.09 ± 0.26
22,TAAAAAGAAATGTAAAGTACAAATTTGAATAACATG [XGTACX_site7981],8.88 ± 0.52

row,Sequence,gcPBM binding intensity (ln)
1,AAAAAAAACAAACACACACACAAATATTTATATATT [CACACA_site436],9.63 ± 0.22
2,TTTTTTTTTCTTTGGTGTACAATGTAATAGAAAATA [XGTACX_site227],8.29 ± 0.35
3,TTTTTTTTTGAATATTGTACATATATATTACTTTTA [XGTACX_site5520],8.74 ± 0.45
4,AAAAAATTATATAAATGTACATTTTGGCTAGACATG [XGTACX_site5977],8.73 ± 0.35
5,CATATATATAATTATTCACACAATAGTTAAAAGTAT [CACACA_site5302],8.8 ± 0.42
6,ATATGTATGTATGTATGTACTTATTTATTTATTAAT [XGTACX_site8018],8.83 ± 0.42
7,TACATAAATTAAAACACACACACACTAATAAAAAAA [CACACA_site8712],9.85 ± 0.18
8,TAGCTCGTTCGGAGCACACACATATATATATATATA [CACACA_site1948],9.81 ± 0.47
9,GTTTTATTTTGTTTCTATTTGACACATGTGATTATT [CACACA_negctrl_site1246],9.1 ± 0.52
10,ATTCAATATATATACACACACACTTTTAATAATTAA [CACACA_site3770],9.38 ± 0.17
11,TCTTGTAAATATATGTGTATATTATATTTTATTATA [TGCATGCA_negctrl_site117],8.64 ± 0.45
12,TGTTAAAATAAAATCTATTACATTTTTATGGTTATA [XGTACX_negctrl_site525],8.3 ± 0.47
13,CTTAATATTCTTTAAAGTACACAAAATAAGAATATA [XGTACX_site5489],8.29 ± 0.47
14,TGCAAGGAAAAACACACACACACATAAATGTATATA [CACACA_site751],9.79 ± 0.25
15,ATTTCATATACAAATTGTACATACAATTTTATGTTT [XGTACX_site3240],8.93 ± 0.35
16,TTAAAAATAATATTATGTACTAAGAATAAATATATA [XGTACX_site3100],8.45 ± 0.4
17,CTAGTAAAAAATGCAAGTACATACATTATAAGTATA [XGTACX_site3908],8.88 ± 0.43
18,ATATTGGAGCACAACACACACAAGTATAAATATGGA [CACACA_site6834],9.48 ± 0.45
19,AAAAAACACGCACATACACACAAAAATGTTATAAAT [CACACA_site6188],9.53 ± 0.4
20,TTATATTTTTTAATTACACACAATTTTTATAAATAT [CACACA_site4148],8.71 ± 0.47
21,ATCTCATAAAACCGCACACACATAAAATTTGCATTA [CACACA_site3891],9.45 ± 0.4
